Read counts are not given, so values of variants with three or more changes are uncertain.

Results on 167 variants are retold here after the RNAGym collection of RNA variant scans (doi:10.1093/nar/gkz1192).

B1: CPEB3 Ribozyme (parent)
chain: UAACAGGGGGCCACAGCAGAAGCGUUCACGUCGCAGCCCCUGUCAGAUUCUGGUGAAUCUGCGAAUUCUGCUGUAUAUCUC

The variants in the data set derive from B1. The experiment in a line: self-cleavage, relative activity (ratio to wild type); higher = more cleavage; in vitro, sequencing. In outline: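 CPEB3 self-cleaving ribozyme mutant libraries were made by rounds of error-prone PCR, barcoded, and transcribed in vitro with T7 RNA polymerase for 5 hours at 37°C. Cleavage occurred during transcription and a 15 min DNase I step before EDTA stop. RNAs were reverse transcribed with template switching and Illumina-sequenced, with DNA sequencing mapping barcodes to variants. Relative activity is the variant's cleaved/total read fraction divided by wild type's (minimum 5 reads), averaged across three batches.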
For the variant A3U A5U A18U U26C, the self-cleavage came to 0.26. As for A3U A5C A65G, the self-cleavage came out at 0.37.

A3G U48C A57G: the self-cleavage came out at 0.95. For the variant A3U A5U A21G U26C A28G G30A, the self-cleavage was found to be 0.42. For the variant A3U A5U A56G, the self-cleavage came to 0.98. As to A3G U31C U60G C62U, the self-cleavage worked out at 0.29. Turning to A3G U26G U31C U72A, the self-cleavage stood at 0.36. As for A3G U43A A45G A47U, the self-cleavage is 0.54. Regarding A3G U41C G55U A56G A77G, the self-cleavage was determined as 0.99. With A3G U51A A57G U58A, the self-cleavage stood at 0.16. For the variant A3U A13G A35G A45G U80G, the self-cleavage worked out at 0.85. Consider A3G U26C U31C C62U A64G C68U, for which the self-cleavage was 0.11. As to A3G U31G A47G U58A A65G, the self-cleavage is 0.38. With A3U A15G G33A U41C U54C U72C, the self-cleavage amounted to 0.43.

For A3U A13C U41C U66C, the self-cleavage worked out at 0.47. Regarding A3U A15C G19A U25C U49C U54A U69A, the self-cleavage turned out to be 0.08. Regarding A3U A5U U26C U41A U60C, the self-cleavage is 0.34. A3G U43C U72A: the self-cleavage turned out to be 0.29.

With A3U A15G A47U U48C U66G, the self-cleavage stood at 0.19. Turning to A3G U31C C62U U66C, the self-cleavage was found to be 0.18.

Regarding A3G U41A A75G, the self-cleavage amounted to 0.53. A3G U41A A57G U66C: the self-cleavage worked out at 0.19. As for A3U A5U G9A G73C, the self-cleavage was found to be 0.66. Take A3U A13U G33A U51C C62U A77C: the self-cleavage was found to be 0.16. On to A3U A5U U51A U60C, for which the self-cleavage is 0.66. The result for A3U A13G A47G reads 0.94. The result for A3G U43C G52A G53U A56G reads 0.83; that for A3U A13U G22U G73A A75U U78C, 0.73; that for A3U A5G U48C U49C U60C, 0.15. With A3G U51A U58C, the self-cleavage was 0.32.

On to A3U A5U U43C A56G, for which the self-cleavage is 0.62.

Regarding A3G U26C U31A A45G, the self-cleavage is 0.53. Regarding A3G U41A U43A C59U, the self-cleavage amounted to 0.15.

In the case of A3U A15U A28C U48C, the self-cleavage was 0.27.

Take A3U A18G G22C: the self-cleavage is 0.6. On to A3U A5G U60A U69C, for which the self-cleavage came out at 0.44. Turning to A3G U49C U78C, the self-cleavage worked out at 0.81. Take A3G U67C U69A: the self-cleavage was 0.25. Regarding A3U A13U G30A A35U U54A U60A C71A, the self-cleavage was 0.11. For A3U A18U U67C A75G, the self-cleavage stood at 0.23. For A3U A5G G10C U41G, the self-cleavage was determined as 0.22. In the case of A3G U51A A56G U58A, the self-cleavage was determined as 0.27. For the variant A3G U43C U54C, the self-cleavage worked out at 0.33.

Regarding A3U A15U A18G, the self-cleavage worked out at 0.39. A3U A15G G63A U66C U72G: the self-cleavage amounted to 0.42. Take A3G U41C A56U: the self-cleavage was 0.69. The result for A3G U31C A56U U69C U80G reads 0.17; that for A3G U41A U51C U66A, 0.33.

As for A3G U26C U48C U76C, the self-cleavage came out at 0.14. In the case of A3G U41A G55A U69C, the self-cleavage is 0.21. Take A3G U49C U54C U67C: the self-cleavage is 0.42. With A3G U41A A47G U78A, the self-cleavage turned out to be 0.56.

On to A3U A18U G53C U60A A64G, for which the self-cleavage turned out to be 0.41. Consider A3U A20G A45G U51C U54C U66C, for which the self-cleavage turned out to be 0.63. Consider A3U A15G C32G U49A U60A, for which the self-cleavage was 0.25. The result for A3G U72C A75C U78A reads 0.83.

For the variant A3G U26C C39U U69C, the self-cleavage was 0.13. With A3G U41A U54C A64U U69C U72C, the self-cleavage turned out to be 0.16. The result for A3G U51C A57G reads 1.01; that for A3U A5U U25C G30C A56G C79A, 0.03; that for A3G U41C U58C, 0.75. In the case of A3G U51A U54C it was 1.

Turning to A3U A15G A20U C40G, the self-cleavage was determined as 0.14. The result for A3U A5G U25C U26C reads 0.47; that for A3U A18G A47G U80C, 0.85.

Turning to A3G U49C U72G, the self-cleavage worked out at 0.42. As for A3G U31A A45G, the self-cleavage amounted to 0.33. As for A3G U26C U31C A56U, the self-cleavage came to 0.17. In the case of A3G U43A A47G U67C, the self-cleavage was determined as 0.33. The result for A3G U51A A75G U80C reads 0.62; that for A3U A20G U26C A28G U49C U80C, 0.51; that for A3U A15G U25C U54C, 0.09. In the case of A3G U31A A47G it was 0.71. Take A3G U43A U72A: the self-cleavage turned out to be 0.59. For the variant A3G U26A U78A, the self-cleavage stood at 0.96. As to A3U A18U U67C U72A, the self-cleavage was 0.14. In the case of A3G U66C U67A U72C A75G U78C it was 0.27; in that of A3U A15G A35U A64G U67C, 0.49; in that of A3G U31C U60C U78C, 0.35. The result for A3U A18C C34U A35G A64U U72A reads 0.11; that for A3G U26C A28U A65G, 0.28. With A3G U26C A28U A57C, the self-cleavage stood at 0.17. A3G U58A A64U C68A: the self-cleavage came to 0.14. A3G U31C A56U U80G: the self-cleavage was determined as 0.62.

Turning to A3G U60A U69C, the self-cleavage worked out at 0.3. As to A3G U26A G42A U48C, the self-cleavage was 0.05. On to A3G U51C U54C U80C, for which the self-cleavage stood at 1.

Consider A3U A15U A18C G53C A56U U74G A75U, for which the self-cleavage is 0.15. Consider A3G U41C U54C, for which the self-cleavage is 0.97.

Turning to A3G U58C G73U U78C, the self-cleavage stood at 1.18. For the variant A3U A15G U67C G73U, the self-cleavage was found to be 0.17. Regarding A3U A15G A18G A21G C37G, the self-cleavage was 0.17.

As for A3G U41C U48C U51A, the self-cleavage came to 0.27.

Take A3G U41C U43C U60A U69C: the self-cleavage turned out to be 0.09. The result for A3U A18G A35G C40A U72A reads 0.07. As for A3G U26C C40U U48C, the self-cleavage was found to be 0.11.

With A3G U58C U60C A64G U66C, the self-cleavage amounted to 0.32. As to A3G U48C C62G, the self-cleavage is 0.16. In the case of A3U A20G A47G U51C A65U, the self-cleavage stood at 0.17. With A3U A13G C32A A45U U51C U54C, the self-cleavage came to 0.19. Regarding A3G U26C A28G A45G C81U, the self-cleavage was determined as 0.19. As to A3G U31A A35U U41C U78C U80C, the self-cleavage stood at 0.12. In the case of A3G U26C U41C U48C A56U it was 0.13; in that of A3U A15G C17U U60C U78C, 0.23. As for A3U A20G U41C, the self-cleavage amounted to 1.28. Turning to A3G U60C G63A, the self-cleavage worked out at 0.5. A3U A18U U31C A45G: the self-cleavage amounted to 0.1. Turning to A3U A15U A64U, the self-cleavage was 0.24. A3U A20G C38U: the self-cleavage turned out to be 0.14.

On to A3G U26C U31C A45U U60C U67A U69A, for which the self-cleavage turned out to be 0.09. With A3G U49C A57G, the self-cleavage is 0.19.

With A3G U43C A45U, the self-cleavage is 0.42.

For the variant A3G U51C U54A C68G A75U, the self-cleavage is 1.18. Consider A3G U41A G46A U49A, for which the self-cleavage is 0.26. On to A3G U31C U41C, for which the self-cleavage is 0.29. Turning to A3G U48C G52U A56G U78C U80C, the self-cleavage amounted to 0.68.

As for A3G U26G U69A A75U, the self-cleavage amounted to 0.22. In the case of A3G U26C U31A U43C U60A, the self-cleavage amounted to 0.27. On to A3U A13U A15G U49A, for which the self-cleavage turned out to be 0.48. With A3G U67C U72C A75G, the self-cleavage is 0.35. In the case of A3G U26G U80A, the self-cleavage came out at 0.71. On to A3U A13U A15G A45G U54C A56G U66C, for which the self-cleavage turned out to be 0.3. The result for A3G U54C U58A U67A U76C reads 0.14. The result for A3U A15U C27U A28U U58A U69A U76C reads 0.12; that for A3G U60C U72A, 0.52.

Regarding A3G U54A U74A, the self-cleavage came to 1.22. As to A3U A13U U60C C68G, the self-cleavage was 0.46. With A3G U41A A45G G70C, the self-cleavage came out at 0.21. On to A3U A13U C17U U60C U67A, for which the self-cleavage was 0.17.

As to A3G U41C A45G, the self-cleavage amounted to 0.91. As to A3G U41C A45U, the self-cleavage turned out to be 0.67. In the case of A3G U43C U69A it was 0.45; in that of A3U A20G U26A C34G U69A U72C, 0.08; in that of A3G U51C U54A, 0.91. Turning to A3U A20G A21G G30C U67C U74C, the self-cleavage amounted to 0.04.

Regarding A3G U48C A57G U66A, the self-cleavage was determined as 1.12. As to A3G U67C U72A, the self-cleavage is 0.29.

Take A3G U69A U72C: the self-cleavage is 0.51.

Take A3U A18G U60C: the self-cleavage was 0.21.

Consider A3G U41C G55U U67C U69C, for which the self-cleavage is 0.29. The result for A3U A5U U43A A57G A65G reads 0.28; that for A3G U66C C71U A77U, 0.12. With A3U A18C U60A U69C, the self-cleavage was 0.16.

For A3U A20G A21G A28U G30C U67C U76C, the self-cleavage was 0.04. With A3G U31C U41A G53U A56U U72A, the self-cleavage was 0.07. For the variant A3G U26C U58C U66C, the self-cleavage came out at 0.19. As to A3U A20G U26A A28C U51A U67G, the self-cleavage was 0.07.

Turning to A3G U67A A77G, the self-cleavage is 0.49. In the case of A3G U48C U69C U72C U78A it was 0.14. For A3G U43A U48C A56G, the self-cleavage came out at 0.43. A3U A15U U31C U43C: the self-cleavage worked out at 0.62.

For A3G U60G U76C U80A, the self-cleavage worked out at 0.65.

As for A3U A15C U48C U67C, the self-cleavage was 0.39. A3U A5U U31C: the self-cleavage was found to be 1.14. In the case of A3U A15G C38G U67A, the self-cleavage worked out at 0.24. The result for A3U A13G C17G A20G U26C U58C reads 0.36; that for A3U A5G A35G U48C, 1.11.

For A3G U49A A57G G63A, the self-cleavage was 0.49.

As for A3G U49C U54C U66C U76C U80C, the self-cleavage came to 0.37. With A3G U31C A35U U72C, the self-cleavage turned out to be 0.56. Regarding A3U A18G U25C C34G C39A, the self-cleavage stood at 0.13. Consider A3G U67G A75G, for which the self-cleavage turned out to be 0.35.

Regarding A3G U26C C29A U41C A65U, the self-cleavage came out at 0.24. As for A3G U26C G36A, the self-cleavage was 0.29. For A3U A20G G33A U48A U54C A65U, the self-cleavage amounted to 0.08. With A3U A15G U31C, the self-cleavage stood at 0.26. The result for A3U A15G A47G reads 0.95.
